Experimental data from the supplement of paper PMC11060735.
“And” between values parts separate entries of the source, which are not always exact repeats. Identical values can stand only once. Counter-ions that a name gives are not always drawn. Out of some 1,800 compounds screened, about 50 (3%) showed activity. The list shows a part of the results.

System: mouse p16Ink4a+/- lung fibroblasts (INKBRITE, bleomycin-injured)
Assay: percentage of GFP+ (p16Ink4a+) fibroblasts among all cells in well; higher = less depletion of p16Ink4a+ cells, active = 20 or less
Conditions: 1 µM; 3 days
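Further: fibroblasts sorted 14 days after bleomycin, GFP+ and GFP− mixed 1:1 in 384-well plates (GFP− as in-well control), imaged after Hoechst and NucView530 staining, reference wells lacked compound.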

Structure (SMILES)	percentage of GFP+
O=C(O)c1cccnc1 [Niacin]	inactive: 40.2%
CCC(C)(C)C(=O)O[C@H]1C[C@@H](C)C=C2C=C[C@H](C)[C@H](CC[C@@H]3C[C@@H](O)CC(=O)O3)[C@H]21 [Simvastatin]	inactive: 20.1%
CN1CCOC(c2ccccc2)c2ccccc2C1 (centres undefined) [Nefopam]	inactive: 42.1%
COC(=O)Nc1nc2cc(S(=O)c3ccccc3)ccc2[nH]1 (centres undefined) [Oxfendazole]	inactive: 36.2%
CS(=O)(=O)c1ccc([C@@H](O)[C@@H](CF)NC(=O)C(Cl)Cl)cc1 [Florfenicol]	inactive: 50.4%
CN[C@@H]1[C@H](O)[C@H](NC)[C@H]2O[C@@]3(O)C(=O)C[C@@H](C)O[C@H]3O[C@@H]2[C@H]1O [Spectinomycin]	inactive: 41.2%
c1ccc2c(CC3=NCCN3)cccc2c1 [Naphazoline]	inactive: 38.4%
CC#CCn1c(N2CCC[C@@H](N)C2)nc2c1c(=O)n(Cc1nc(C)c3ccccc3n1)c(=O)n2C [Linagliptin]	inactive: 43.6%
N[C@H]1C[C@@H]1c1ccc(-c2cccc(O)c2)cc1	inactive: 44.5%
Nc1ncnc2c1ncn2[C@@H]1O[C@H](CO)[C@@H](O)[C@H]1O [Adenosine]	inactive: 39.5%
O=[N+]([O-])c1ccc2c(c1)S(=O)(=O)C=C2 [Stattic]	inactive: 21.8%
N=C(N)/N=C(\N)NCCc1ccccc1 [Phenformin]	inactive: 37.3%
O=C(O)c1ccc(N2C(=O)/C(=C/c3ccc(-c4ccc([N+](=O)[O-])cc4)o3)C=C2c2ccccc2)cc1	inactive: 49.2%
COC(=O)/C=C/C(=O)OC [Dimethyl Fumarate]	inactive: 41%
COC(=O)N[C@@H](C)CNc1nccc(-c2cn(C(C)C)nc2-c2cc(Cl)cc(NS(C)(=O)=O)c2F)n1	inactive: 49.8%
CN(C)CC/C=C1/c2ccccc2COc2ccc(CC(=O)O)cc21 [Olopatadine]	inactive: 41.7%
CN(C)c1ccc(C(=O)NCCCCCCC(=O)NO)cc1	inactive: 30.4%
CO[C@H]1C[C@@H]2CC[C@@H](C)[C@@](O)(O2)C(=O)C(=O)N2CCCC[C@H]2C(=O)O[C@H]([C@H](C)C[C@@H]2CC[C@@H](OC(=O)C(C)(CO)CO)[C@H](OC)C2)CC(=O)[C@H](C)/C=C(\C)[C@@H](O)[C@@H](OC)C(=O)[C@H](C)C[C@H](C)/C=C/C=C/C=C/1C [Temsirolimus]	inactive: 38.5%
C[C@H](CCC(=O)O)[C@H]1CC[C@H]2[C@@H]3[C@@H](O)C[C@@H]4C[C@H](O)CC[C@]4(C)[C@H]3CC[C@]12C [Ursodeoxycholic Acid]	inactive: 47%
CCOc1ccccc1N=Nc1c(C)nn(-c2nc(-c3ccccc3)cs2)c1O	inactive: 48.7%
CC(=O)Oc1ccc(C(c2ccc(OC(C)=O)cc2)c2ccccn2)cc1 [Bisacodyl]	inactive: 42.6%
N[C@@H](Cc1cc(I)c(Oc2ccc(O)c(I)c2)c(I)c1)C(=O)O [Liothyronine]	inactive: 49%

Structure (SMILES)	percentage of GFP+
Cc1ccc(-n2sc(=O)n(Cc3ccc(F)cc3)c2=O)cc1	inactive: 46.8%
O=c1cc(N2CCOCC2)oc2c1ccc1ccccc12	inactive: 41.8%
O=C(/C=C/C=C/c1ccc2c(c1)OCO2)N1CCCCC1 [Piperine]	inactive: 36.6%
Cc1ccc(NC(=O)c2cccc(C(C)(C)C#N)c2)cc1Nc1ccc2ncn(C)c(=O)c2c1	inactive: 30.9%
COc1ccc(CCN(C)CCCC(C#N)(c2ccc(OC)c(OC)c2)C(C)C)cc1OC (centres undefined) [Verapamil]	inactive: 52.9%
C=C1C(=O)[C@@]23C(CC[C@@H]1[C@H]2O)[C@@]12CO[C@]3(O)[C@@H](O)[C@@H]1C(C)(C)CC[C@@H]2O (some centres undefined) [Oridonin]	inactive: 29.7%
CC(C)(C)c1ccc(C(=O)CCCN2CCC(OC(c3ccccc3)c3ccccc3)CC2)cc1 [Ebastine]	inactive: 56.5%
Cc1cc(-c2ncc(CC(=O)Nc3ccc(-c4cnccn4)cn3)cc2C)ccn1	inactive: 40%
CC1(C)SC2C(NC(=O)[C@H](C(=O)O)c3ccsc3)C(=O)N2C1C(=O)O (some centres undefined) [Ticarcillin sodium]	inactive: 38.1%
Cc1ccc(O)c([C@H](CCN(C(C)C)C(C)C)c2ccccc2)c1 [Tolterodine]	inactive: 40.7%
C=CCc1ccc(O)c(-c2ccc(O)c(CC=C)c2)c1 [Honokiol]	inactive: 47.7%
C[C@]1(c2nc3c(C(N)=O)cccc3[nH]2)CCCN1 [Veliparib]	inactive: 40.6%
CC1(C)CC(=O)c2c(C(F)(F)F)nn(-c3ccc(C(N)=O)c(N[C@H]4CC[C@H](OC(=O)CN)CC4)c3)c2C1	active: 6.23%
Fc1ccc(C(c2ccc(F)cc2)N2CCN(C/C=C/c3ccccc3)CC2)cc1 [Flunarizine]	inactive: 44.8%
COc1ccc([C@@H]2CC(=O)c3c(O)cc(O[C@@H]4O[C@H](CO[C@@H]5O[C@@H](C)[C@H](O)[C@@H](O)[C@H]5O)[C@@H](O)[C@H](O)[C@H]4O)cc3O2)cc1O [Hesperidin]	inactive: 43.1% and inactive: 45%
CCN1/C(=C/C(C)=O)Sc2ccc(OC)cc21	inactive: 50.3%
COc1cc(OC)c2c(O)nc(-c3cc(C)c(OCCO)c(C)c3)nc2c1	inactive: 46.3%
CS(=O)(=O)c1ccc(C2=C(c3ccccc3)C(=O)OC2)cc1 [Rofecoxib]	inactive: 40.2%
O=C(/C=C\n1cnc(-c2cc(C(F)(F)F)cc(C(F)(F)F)c2)n1)N1CC(F)(F)C1	inactive: 24.1%
CCCCNc1ncc(-c2ccc(CN3CCOCC3)cn2)c(N[C@H]2CC[C@H](O)CC2)n1	inactive: 48.8%
CNC[C@H](O)c1ccc(O)c(O)c1 [Epinephrine]	inactive: 43.2% and inactive: 43.6% and inactive: 39%
C=C(C)[C@@H]1CC[C@]2(C(=O)O)CC[C@]3(C)[C@H](CC[C@@H]4[C@@]5(C)CC[C@H](O)C(C)(C)[C@@H]5CC[C@]43C)[C@@H]12 [Betulinic acid]	inactive: 49.8%
